# Results published in PubChem BioAssay AID1508642 (National Center for Advancing Translational Sciences (NCATS), 2021).
# Hit rate of the full screen: of about 43,000 compounds, about 200 (0.47%) were called active. About 12% were inconclusive and are not listed. The call rests on the fitted dose curve; in most records, active means well fitted cell-killing curve with a large enough effect; inconclusive means small, poorly fitted or top-dose-only effect, or effect the other way; inactive means flat fitted curve, though single readings scatter. The list shows a part of the results.
# Assay: Cell viability qHTS assay in S16 Pmp22-F2sN cells; further: nearly all actives have a fitted effect of over 65% in size
# Settings: S16 Pmp22-F2sN Schwann cells viability, CellTiter-Glo, 24 h; series mostly up to 57.5 µM; activity change, negative = cytotoxicity: at the top concentration
# How it was run: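 S16 Pmp22-F2sN Schwann cells (500-1,000/well) in phenol-red-free DMEM with 10% FBS received 23 nL compound by pin tool for 24 h at 37 °C. Viability was then read as CellTiter-Glo luminescence after 15 min at room temperature.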
# On the % scale 0 is the no-effect control and ±100 the full control effect.
row,SMILES,"activity change, negative = cytotoxicity"
1,Cc1cc(Br)cc(C)c1NC(=O)c1sc2ncn(Cc3cccc(F)c3)c(=O)c2c1C,inactive: -8.12%
2,CCCOc1ccc(-c2nonc2NC(=O)c2ccco2)cc1OCCC,inactive: -13.8%
3,Cc1nc(-c2ccc(S(=O)(=O)N3CCN(c4cccc(C(F)(F)F)c4)CC3)cc2)co1,inactive: 2.84%
4,CC1CCN(C(=O)c2cc3c(=O)n(C)c4cc(Cl)ccc4c3s2)CC1,inactive: 0.266%
5,CC(=O)c1ccc(N2CCN(C(=O)c3cc(S(=O)(=O)N4CCCCCC4)cn3C)CC2)cc1,inactive: 12.2%
6,Cc1cccc(NC(=O)CSc2ccc(-c3sc(-c4ccccc4)nc3C)nn2)c1C,inactive: 15%
7,CCOC(=O)c1sc2ncn(CC(=O)Nc3cc(Cl)ccc3C)c(=O)c2c1C,inactive: 0.448%
8,CCOC(=O)c1cc2c(=O)n3ccccc3nc2n(CC2CCCO2)c1=NC(=O)c1ccccc1Br (centres undefined),inactive: -1.35%
9,COCCCNC(=O)c1ccc(Cn2c(SCc3ccc(F)cc3)nc3cccnc32)cc1,inactive: -24.5%
10,O=C(OCc1cc(=O)n2nc(-c3cccs3)sc2n1)c1cccc(F)c1,inactive: 17.5%
11,CC(C)CCN(C(=O)Nc1ccc(Cl)c(Cl)c1)C1CCN(C(C)C)CC1,inactive: -21.8%
12,Cc1cc(C(=O)Nc2c(C)cccc2C)n(-c2ccccc2)n1,inactive: -4.11%
13,COc1ccc(NC(=O)C2CCN(C3=NS(=O)(=O)C(c4ccc(C)c(C)c4)=C3C)CC2)c(OC)c1,inactive: -17.7%
14,O=C(c1noc2c1CCCCC2)N1CCN(c2cccc(Cl)c2)CC1,inactive: 0.569%
15,CCN1CCN(c2nnc(-n3cccc3C(=O)NCc3ccccc3OC)s2)CC1,inactive: -0.298%
16,O=C(c1cc2ccc3cccnc3c2[nH]1)N1CCCCC1,inactive: -6.88%
17,COc1ccc(C)cc1NS(=O)(=O)c1cnc(N)nc1,inactive: 10.2%
18,O=C(NCCc1csc(-c2cccc(F)c2)n1)C(=O)Nc1cc(F)ccc1F,inactive: 14.4%
19,Cc1ccc(C)c(NC(=O)Cc2coc3cc(C)cc(C)c23)c1,inactive: -0.351%
20,O=C(CC1N=C2c3ccccc3N=C(SCC(=O)Nc3ccc(F)cc3)N2C1=O)NCc1ccco1 (centres undefined),inactive: 3.71%
21,CCOc1ccc2nc(N3CCCC(C(=O)Nc4ccc(OC)cc4)C3)sc2c1 (centres undefined),inactive: 7.01%
22,COc1ccc(CCNC(=O)c2c(O)nc3ccccn3c2=O)cc1OC,inactive: -6.46%
23,COc1ccccc1NC(=O)CSc1oc(-c2ccco2)nc1S(=O)(=O)c1ccc(C)cc1,inactive: 0.868%
24,COc1ccc(NC(=O)c2csnn2)cc1Cl,inactive: -5.91%
25,CCc1nn2c(=O)cc(COC(=O)c3ccc(NC(=O)COc4ccccc4C)cc3)nc2s1,inactive: 3.38%

row,SMILES,"activity change, negative = cytotoxicity"
1,Cc1ccc(C(=O)Nc2nnc(S(=O)(=O)N(C)Cc3ccc(Cl)cc3)s2)cc1,inactive: -6.2%
2,Clc1ccc(-c2cc3ncc4c(n3n2)-c2ccccc2OC4)cc1,inactive: 16.9%
3,O=C(Nc1ccccc1-c1nc2ccccc2s1)c1ccc(F)cc1,inactive: 6.66%
4,Cc1ccc(CN2CCCn3nc(C(=O)NCc4ccc(N(C)C)cc4)cc3C2=O)cc1,inactive: -8.91%
5,COc1ccc(CCNc2nc3c(-c4cccc(C(F)(F)F)c4)nnn3c3ccccc23)cc1OC,inactive: 11.5%
6,CCOc1ccc(NC(=O)c2cc3cc(C)ccc3n2C)cc1,inactive: 0.578%
7,CC(C)CNC(=O)Nc1cc(C(=O)NCc2ccc(C(C)C)cc2)ccc1N1CCCC1,inactive: -2.4%
8,CC1CCN(c2nc(-c3ccc(C(C)(C)C)cc3)nc3ccccc23)CC1,inactive: -2.45%
9,CCC(=O)N1CCc2cc(S(=O)(=O)NC(C(=O)NCCc3cccc(C)c3)C(C)C)ccc21 (centres undefined),inactive: -1.18%
10,CN(Cc1ccco1)S(=O)(=O)c1nnc(NC(=O)c2ccccc2Cl)s1,inactive: -2.34%
11,Cc1nn(C)c(C)c1CCNC(=O)Nc1ccccc1C(F)(F)F,inactive: -16.6%
12,COc1ccc(N2CC(NC(=O)/C=C\c3ccccc3)CC2=O)cc1OC (centres undefined),inactive: 14.9%
13,CCN(CC)c1nn2c(=O)c(C(=O)NCc3ccc(N(C)C)cc3)cnc2s1,inactive: -1.58%
14,Cc1ccc(C2c3[nH]c4ccccc4c3CCN2C(=O)CSCc2ccc(F)cc2)cc1 (centres undefined),inactive: -18.6%
15,O=C(NCCc1csc(-c2ccc(F)cc2)n1)c1cccc(F)c1,inactive: 24.9%
16,COc1ccccc1CNC(=O)C1CCN(S(=O)(=O)c2cn(C)cn2)CC1,inactive: 6.66%
17,CCc1ccccc1N(C)C(=O)c1sc2nc3n(c(=O)c2c1C)CCCCC3,inactive: -5.44%
18,COc1ccc(C(=O)CCC(=O)Nc2ccc(C)c(Cl)c2)cc1,inactive: -0.182%
19,CCc1cccc(C)c1NC(=O)c1cnn(-c2ccc(OC)cc2)c1C1CCN(C(=O)OC(C)(C)C)CC1,inactive: -11.4%
20,COc1ccc(NC(=O)c2nc(-c3ccc(C)cc3)n3c2CCCCC3)c(OC)c1,inactive: 8.28%
21,Cc1ccc(SCC(=O)Nc2ccc3oc(-c4ccccc4F)nc3c2)cc1,inactive: 4.59%
22,CCOC(=O)c1ccccc1NC(=O)c1cnc(N2CCOCC2)c2ccccc12,inactive: -0.581%
23,Cc1cc2oc(C(=O)N(Cc3ccco3)Cc3ccccc3Cl)c(C)c2cc1C,inactive: -20%
24,CC1CCc2onc(C(=O)N3CCN(c4cccc(Cl)c4)CC3)c2C1 (centres undefined),inactive: -13.4%
25,CC(C)Oc1ccc(CNC(=O)c2ccc(NC(=O)N3CC(C)Sc4ccccc43)cc2)cc1 (centres undefined),inactive: -0.381%

row,SMILES,"activity change, negative = cytotoxicity"
1,O=C(/C=C/c1ccccc1)Nc1nc2n(n1)C(c1ccc(F)cc1)C=C(c1ccccc1)N2 (centres undefined),inactive: 1.99%
2,CCOC(=O)CNC(=O)c1cc2c(=O)n3cccc(C)c3nc2n1C,inactive: 11.1%
3,COc1ccc(C(=O)Nc2ccc3oc(-c4cccnc4)nc3c2)cc1OC,inactive: 22.7%
4,CCOc1ccc(CNC(=O)c2ccc3c(c2)nc2n3CCCCC2)cc1,inactive: -0.0084%
5,COCCn1c(=O)[nH]c2cc(C(=O)Nc3ccc(OC)cc3)ccc2c1=O,inactive: 2.67%
6,CCCCCn1c(=O)[nH]c2cc(C(=O)NC(C)CC)ccc2c1=O (centres undefined),inactive: 17%
7,CC(C)(C)c1ccc(OCCOCCn2c(-c3ccc(Cl)cc3)nc3ccccc3c2=O)cc1,inactive: -12%
8,O=C(COC(=O)c1cccc(NC(=O)c2ccc(Br)cc2)c1)c1ccc(Cl)cc1,inactive: 0.278%
9,CCn1c2ccccc2c2cc(NC(=O)COc3cc(C)ccc3C)ccc21,inactive: 6.9%
10,Cc1cccc(Cn2c(COc3ccccc3)nc3ccccc32)c1,inactive: 0.0509%
11,Cc1ccc2c(c1)cc(C(=O)NCc1ccccc1C)n2C,inactive: 7.49%
12,CCc1cnc2c(c1SCC(=O)Nc1ccc(C(=O)OC)cc1)c(=O)n(C)c(=O)n2C,inactive: -24.7%
13,CC(C)Oc1ccc(CNC(=O)C2CCN(Cc3cc4ccccc4n3Cc3ccccc3)CC2)cc1,inactive: -2.29%
14,O=C(CSc1nc(=O)n(Cc2ccco2)c2c1CCC2)NCc1ccc(Cl)cc1,inactive: 13.2%
15,Cc1ccc(NC(=O)CCn2c(=O)c3cccn3c3ccccc32)cc1Cl,inactive: -1.62%
16,COc1ccc(N2CC(NC(=O)C(=O)c3c(C)[nH]c4ccccc34)CC2=O)cc1 (centres undefined),inactive: 1.59%
17,COc1cc(OC)c(NC(=O)Cn2cnc3sc(C)c(S(=O)(=O)N4CCC(C)CC4)c3c2=O)cc1Cl,inactive: -11.5%
18,CCN(Cc1ccccc1)C(=O)Cn1c(=O)n(-c2ccc(Cl)c(Cl)c2)c(=O)c2c(C)c(C(=O)N(C)C)sc21,inactive: -3.28%
19,COc1ccccc1CNC(=O)CSc1nc(=O)[nH]c2c1CCCC2,inactive: 3.43%
20,Cc1cc(C)n(-c2nc3ccccc3nc2Nc2cc(Cl)ccc2C)n1,inactive: 5.03%
21,Cc1cc(C)c2nc(N(Cc3cccnc3)C(=O)Cc3ccccc3)sc2c1,inactive: -9.16%
22,Cc1cc(NC(=O)Nc2nnc(N3CCCCC3)s2)ccc1Br,inactive: -0.192%
23,NS(=O)(=O)c1ccc(NC(=O)c2csnn2)cc1,inactive: 6.18%
24,COc1ccc(OC)c(NC(=O)Cn2cnc3onc(-c4ccc(Cl)cc4)c3c2=O)c1,inactive: -20.8%
25,COc1ccc(NC(=O)CN(C)S(=O)(=O)c2ccc3c(c2)c(=O)n(C)c(=O)n3C)cc1,inactive: -0.785%

row,SMILES,"activity change, negative = cytotoxicity"
1,Cc1cc(C)cc(NC(=O)COCc2cc(-c3ccc4c(c3)OCO4)on2)c1,inactive: 3.73%
2,Cc1cc2c(cc1S(=O)(=O)NCc1ccccc1Cl)OCC(=O)N2,inactive: -0.496%
3,COc1cccc(-c2nc(CS(=O)(=O)CC(=O)NCCc3ccc(Cl)cc3)c(C)o2)c1,inactive: -4.26%
4,CC1CCCCN1C(=O)CSc1c2c(nc3cc(Cl)ccc13)CCCC2 (centres undefined),inactive: -3.23%
5,COc1cccc(N2CCN(C(=O)C3CCN(S(=O)(=O)c4cn(C)cn4)CC3)CC2)c1,inactive: 19.2%
6,CCOCCn1c(=O)c2c(nc3n2CCN3c2ccc(C)c(C)c2)n(C)c1=O,inactive: -0.0731%
7,CCc1ccc(-n2nc(CO)c(C(=O)NCc3cccs3)n2)cc1,inactive: -16.3%
8,COc1ccc(-c2nc3ccc(Cl)cn3c2Nc2ccc(C)cc2)cc1,inactive: -4.28%
9,COc1ccc(OCC2c3cc(OC)c(OC)cc3CCN2C(=O)c2c(F)cccc2F)cc1 (centres undefined),inactive: -2.93%
10,CCCCNC(=O)c1cn(C)c2ccc(S(=O)(=O)N3CCCC3)cc2c1=O,inactive: -19%
11,COc1ccc(OC)c(NC(=O)CCNC(=O)Cn2cnc3ccccc3c2=O)c1,inactive: 5.41%
12,Fc1ccc(Nc2c(-c3ccccn3)nc3ccc(Cl)cn23)cc1,inactive: -0.911%
13,O=C(NCCc1ccccc1)c1nn(-c2ccccc2Cl)nc1CO,inactive: 0.561%
14,COc1cccc(NC(=O)Cc2csc(COc3cccc(C)c3)n2)c1,inactive: 13.9%
15,COc1ccc(CCNC(=O)c2cc(=O)[nH]c3ccc(S(=O)(=O)N4CCCCC4C)cc23)cc1OC (centres undefined),inactive: 8.87%
16,CCOCCCNC(=O)c1c(NC(=O)c2nc(SC)ncc2Cl)sc2c1CCCC2,inactive: 8.34%
17,Cc1cn2c(=O)cc(COC(=O)c3ccc(NC(=O)C(C)Oc4ccccc4)cc3)nc2s1 (centres undefined),inactive: 9.16%
18,COCCn1c(C)cc(O)c(C(c2ccc(OC)cc2)N2CCN(c3ccccc3)CC2)c1=O (centres undefined),inactive: -0.47%
19,Cc1ccc(C)c(-n2nnc(C(=O)Nc3ccc(Br)cc3)c2C)c1,inactive: -29.7%
20,Cc1ccc(C)c(N2CCN(C(=O)CN3C(=O)COc4ccc(S(=O)(=O)N5CCC(C)CC5)cc43)CC2)c1,inactive: -0.926%
21,COc1ccc(NC(=O)c2c(C)oc3ccc(O)c(CN4CCCCCC4)c23)cc1,inactive: -9.4%
22,CCn1nnc2cc(C(=O)Nc3ccc(OC)cc3)ccc21,inactive: 6.3%
23,Cc1ccc(N2CCN(S(=O)(=O)c3ccc(-n4cnnn4)cc3)CC2)c(C)c1,inactive: 0.108%
24,Cc1ccc(OCC(=O)Nc2ccc3c(c2)sc(=O)n3C)cc1,inactive: -1.51%
